Results reported in patent US6096504A, “Maize glutathione-S-transferase enzymes” (E. I. du Pont Nemours and Company, priority 1999, dated 2000).

What was measured:
Format in all cases: biochemical
Settings in all cases: purified enzyme, 0.4 mM electrophilic substrate, 4 mM glutathione, 0.1 M MOPS pH 7.0
[1] = GST conjugation of t-stilbene oxide with glutathione (HPLC)
Description: (§1) The GST enzymes, expressed and purified as described in Example 5 were screened for their ability to metabolize a variety of substrates. Substrates tested included the three herbicide electrophilic substrates chlorimuron ethyl, alachlor, and Atrazine, and four model electrophilic substrates, 1-chloro-2,4-dinitrobenzene (CDNB), ethacrynic acid, t-stilbene oxide, and 1,2-epoxy-3-(p-nitrophenoxy)propane. The enzymes were purified as described in Example 5 and used in the following assay.
(§2) For each enzyme, the conjugation reaction with each electrophilic substrate was performed by incubating 0.3 to 30 μg enzyme in 0.1 M MOPS (pH 7.0) containing 0.4 mM of the electrophilic substrate. The reaction was inititated by the addition of glutathione to a final concentration of 4 mM. After 5 to 30 min, the reaction was terminated by the addition of 45 μL acetonitrile, microfuged for 10 min to remove precipitated protein, and then the supernatent was removed and added to 65 μl of water. This sample was chromatographed on a Zorbax C8 reverse phase HPLC column (3 μm particle size, 6.2 mm×8 cm) using a combination of linear gradients (flow=1.5 mL/min) of 1% H3 PO4 in water (solvent A) and 1% H3 PO4 in acetonitrile. […] Quantitation of metabolites were based on an assumption that the extinction coefficient of the conjugate was identical to that of the electrophilic substrate.

[2] = GST conjugation of chlorimuron ethyl with glutathione (HPLC)
Description: as §1, §2

[3] = GST conjugation of 1,2-epoxy-3-(p-nitrophenoxy)propane with glutathione (HPLC)
Description: as §1, §2

[4] = GST conjugation of ethacrynic acid with glutathione (HPLC)
Description: as §1, §2

[5] = GST conjugation of CDNB with glutathione (HPLC)
Description: as §1, §2

[6] = GST conjugation of Atrazine with glutathione (HPLC)
Description: as §1, §2

[7] = GST conjugation of alachlor with glutathione (HPLC)
Description: as §1, §2

B1: cs1.pk0059.e2: maize class III GST enzyme encoded by cDNA clone, expressed in E. coli (protein)
chain: MADGGELQLLGSWYSPYVIRAKVALGLKGLSYEFVEEDLSRKSDLLLKLNPVHRKVPVLVHGGRPVCESLVILQYVDETWAGTGTPLLPADAYDRAMARFWAAYVDDKFYKEWNRLFWSTTAEKAAEALGVVVPVVETLEQAFRECSKGKPSSAATPSGSWTSRSGASWCGSGWWTRRPA
With B1 the “activity of enzyme with t-Stilbene Oxide” value [1] was 1.25 nmol/min/mg, the “activity of enzyme with Chlorimuron-Ethyl” value [2] was 0.1 nmol/min/mg and the “activity of enzyme with 1,2-epoxy-3-(p-nitrophenoxy)propane” value [3] was 43 nmol/min/mg. The “activity of enzyme with Ethacrynic Acid” value [4] was 20 nmol/min/mg, the “activity of enzyme with CDNB” value [5] was 1348 nmol/min/mg and the “activity of enzyme with Atrazine” value [6] was 0.02 nmol/min/mg. The “activity of enzyme with Alachlor” value [7] was 8 nmol/min/mg.
